{"source": "PubChem BioAssay AID488969", "about": "(Vanderbilt High Throughput Screening Facility, 2010)", "note": "In all, about 110,000 compounds were measured (“z-score”: median about -0.1, highest 2% from about 2 on). The list shows a part of the results."}
{"biological_target": "Metabotropic glutamate receptor 8 (Rattus norvegicus) (UniProt P70579)", "sequence (P70579 whole entry, looked up)": "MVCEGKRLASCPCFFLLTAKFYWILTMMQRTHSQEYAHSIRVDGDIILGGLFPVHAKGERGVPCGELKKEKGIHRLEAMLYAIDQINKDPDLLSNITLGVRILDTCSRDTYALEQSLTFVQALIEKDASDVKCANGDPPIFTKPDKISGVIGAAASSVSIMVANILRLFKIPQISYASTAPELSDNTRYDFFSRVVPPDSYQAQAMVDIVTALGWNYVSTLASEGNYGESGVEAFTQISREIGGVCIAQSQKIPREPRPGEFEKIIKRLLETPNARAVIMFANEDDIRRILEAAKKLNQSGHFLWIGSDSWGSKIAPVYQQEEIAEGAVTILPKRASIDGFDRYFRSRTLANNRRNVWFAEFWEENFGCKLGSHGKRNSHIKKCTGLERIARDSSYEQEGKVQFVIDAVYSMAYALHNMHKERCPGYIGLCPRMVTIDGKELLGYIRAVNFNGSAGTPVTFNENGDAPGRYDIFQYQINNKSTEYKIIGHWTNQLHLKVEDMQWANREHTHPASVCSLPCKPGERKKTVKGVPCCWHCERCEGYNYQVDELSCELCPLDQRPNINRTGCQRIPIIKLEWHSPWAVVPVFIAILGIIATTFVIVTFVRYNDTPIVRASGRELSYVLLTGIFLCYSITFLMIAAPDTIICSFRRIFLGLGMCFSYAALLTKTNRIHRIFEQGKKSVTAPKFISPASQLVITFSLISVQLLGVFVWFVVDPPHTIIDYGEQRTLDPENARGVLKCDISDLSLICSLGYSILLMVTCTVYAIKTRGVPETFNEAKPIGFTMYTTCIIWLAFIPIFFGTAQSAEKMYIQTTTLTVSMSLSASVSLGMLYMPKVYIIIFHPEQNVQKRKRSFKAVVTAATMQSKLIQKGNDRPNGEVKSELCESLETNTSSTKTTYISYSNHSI", "assay": "mGluR8 Gi/Go-coupled signaling modulation – cell-based, rat, thallium flux, HTS, primary screen (AID 488969)", "conditions": "HEK293 rat mGluR8, GIRK (G protein-gated inwardly rectifying potassium channel) thallium flux, FluoZin2; at 10 µM; stronger effect = higher value; submaximal glutamate (EC20) added with thallium"}
{"smiles": "Cc1c(Cl)c(C(F)(F)F)nn1CC(=O)N1CCSCC1", "z-score": 0.425}
{"smiles": "O=C1CSC(c2nn(-c3ccccc3)cc2-c2cc3ccccc3oc2=O)N1Cc1ccco1", "note": "(stereo unspecified)", "z-score": 0.0314}
{"smiles": "Cc1ccccc1NC(=O)CSc1nnc(Cc2ccccc2)o1", "z-score": -0.0343}
{"smiles": "CNc1c([N+](=O)[O-])ncn1C", "z-score": -0.802}
{"smiles": "Cc1cc(NC(=O)c2cc([N+](=O)[O-])cc([N+](=O)[O-])c2)n(-c2ccccc2)n1", "z-score": -0.172}
{"smiles": "CCNS(=O)(=O)c1ccc(CCC(=O)Nc2cc(Cl)ccc2Oc2ccccc2)cc1", "z-score": -0.0841}
{"smiles": "COc1ccc(C(=O)Nc2ccc3c4c(cccc24)CC3)cc1", "z-score": -0.301}
{"smiles": "O=C(O)C1C2C=CC(C2)C1C(=O)Nc1cccc(F)c1", "note": "(stereo unspecified)", "z-score": 0.376}
{"smiles": "CS(=O)c1ccccc1COC(=O)Nc1ccc(Cl)cc1", "note": "(stereo unspecified)", "z-score": -0.0279}
{"smiles": "CCOC(=O)N1CCC(N2Cc3cccc(C(=O)Nc4ccc(CC)cc4)c3C2=O)CC1", "z-score": -0.393}
{"smiles": "CCOC(=O)C1CCN(C(=O)CCS(=O)(=O)c2ccc3c(c2)CCN3C(C)=O)CC1", "z-score": 0.0537}
{"smiles": "Cc1ccccc1C(=O)N1CCN(c2ncnc3c2cnn3-c2ccccc2)CC1", "z-score": -0.224}
{"smiles": "FC(F)(F)c1cccc(NC(=S)Nc2cccc(Cl)c2)c1", "z-score": 1.03}
{"smiles": "CCN1C(=O)C(CC(=O)Nc2c(C)cccc2C)SC1=Nc1ccc(S(N)(=O)=O)cc1", "note": "(stereo unspecified)", "z-score": -0.0684}
{"smiles": "C=CCc1cc(C)cc(C)c1OCCn1cncn1", "z-score": 0.241}
{"smiles": "O=C(COCC(=O)Nc1cccc(C(F)(F)F)c1)Nc1cccc(C(F)(F)F)c1", "z-score": 0.00891}
{"smiles": "COc1ccc2oc(C)c(C(=O)NN)c2c1", "z-score": -0.136}
{"smiles": "Cc1cc2ccccc2n1CCNC(=O)C1CCCC1", "z-score": 0.191}
{"smiles": "CC(C)(C)C(=O)c1cnc(Nc2ccccc2Cl)s1", "z-score": 1.04}
{"smiles": "Cc1cccc(CSCCNC(=O)COc2ccc(Cl)cc2)c1", "z-score": -0.0336}
{"smiles": "CCCNS(=O)(=O)c1ccc(CCC(=O)Nc2ccc3c(c2)OCO3)cc1", "z-score": -0.159}
{"smiles": "CCN(CC)C(=O)N1CCn2c(nc3ccccc32)C1", "z-score": -0.233}
{"smiles": "COc1ccc(C(C)=O)cc1CSc1nnc(C)s1", "z-score": -0.119}
{"smiles": "Cc1nc(N/N=C/c2ccccn2)sc1C", "z-score": -0.0771}
{"smiles": "CCCCCCCCCCCC(=O)NC(C(=O)OCC)C(O)c1cccc([N+](=O)[O-])c1", "note": "(stereo unspecified)", "z-score": 0.0134}
{"smiles": "CC(=O)c1c(O)cc(=O)n(-c2ccccc2)c1-c1ccc(C)cc1", "z-score": -0.046}
{"smiles": "O=C1CCSc2ccc(Cl)cc2N1Cc1ccc(Cl)cc1", "z-score": -0.366}
{"smiles": "Cc1cc(C(=O)CSc2nc3ccccc3[nH]2)c(C)n1Cc1ccco1", "z-score": -0.207}
{"smiles": "CCCCN1C(=O)C2C3C=CC(C2C1=O)C1C2C(=O)N(CCCC)C(=O)C2C31", "note": "(stereo unspecified)", "z-score": -0.244}
{"smiles": "Nc1c(C(=O)NC23CC4CC(CC(C4)C2)C3)sc2nc3c(c(C(F)(F)F)c12)CCC3", "z-score": -0.168}
{"smiles": "OCCN1CCN(c2cc(-c3ccccc3)c3ccccc3n2)CC1", "z-score": -0.0988}
